According to PubChem BioAssay AID1030 (National Center for Advancing Translational Sciences (NCATS), 2008):
The whole screen tested about 220,000 compounds, of which about 16,000 (7.3%) were called active. The inconclusive results got no clear call from the source; some entries with a clear call stand among them for comparison. The call rests on the fitted dose curve; in most records, active means well fitted inhibition curve with a large enough effect (not every such curve was filed as active); inconclusive means small, poorly fitted or top-dose-only effect, or another doubt; inactive means no such curve, though single readings can be large or run the other way. Potencies of inconclusive entries are left out as doubtful fits.

The molecules below were run against Aldehyde dehydrogenase 1A1 (Homo sapiens) (UniProt P00352) (assay: qHTS Assay for Inhibitors of Aldehyde Dehydrogenase 1 (ALDH1A1)). Conditions: Purified ALDH1A1, NADH fluorescence, propionaldehyde substrate; series mostly up to 75.3 µM.
UniProt P00352, sequence (P00352 whole entry, looked up): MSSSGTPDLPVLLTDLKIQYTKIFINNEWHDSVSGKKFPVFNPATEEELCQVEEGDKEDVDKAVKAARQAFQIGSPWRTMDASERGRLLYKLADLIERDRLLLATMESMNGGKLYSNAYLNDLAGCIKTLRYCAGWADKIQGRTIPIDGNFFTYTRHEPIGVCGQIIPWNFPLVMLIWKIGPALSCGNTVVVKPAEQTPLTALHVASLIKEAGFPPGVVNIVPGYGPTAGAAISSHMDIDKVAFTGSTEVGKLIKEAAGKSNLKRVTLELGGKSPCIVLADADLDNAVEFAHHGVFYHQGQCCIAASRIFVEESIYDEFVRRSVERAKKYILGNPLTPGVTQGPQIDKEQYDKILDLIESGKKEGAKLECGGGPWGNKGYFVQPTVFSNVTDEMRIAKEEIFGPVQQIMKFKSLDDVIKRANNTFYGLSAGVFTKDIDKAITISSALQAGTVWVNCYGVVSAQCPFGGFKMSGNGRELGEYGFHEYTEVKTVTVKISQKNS
Potency means the concentration at half of the fitted maximal effect; tags describe the fitted curve by direction and shape.
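Wherever activity, negative = inhibition is given: plate controls were no enzyme wells and a reference inhibitor.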

SMILES | Potency | activity, negative = inhibition
CCCn1c(=O)[nH]c(=O)c2c1nc(-c1ccccc1OC(F)F)n2CCOC | inconclusive [inhibitor, single point] | 
COCCNC(=S)NCc1ccc2[nH]c3c(c2c1)CCCC3 | inconclusive [inhibitor, single point] | 
COc1cccc(NC(=O)C2CCC(CNS(=O)(=O)c3cccs3)CC2)c1 (stereo not given) | active: 12.6 µM | 
CCn1c2ccccc2c2cc(/C=N/n3cnnc3)ccc21 | inconclusive [inhibitor, partial curve] | 
COc1ccc(/C(N)=N/OC(=O)CCc2ccccc2)cc1 | inconclusive [inhibitor, single point] | 
O=C(NCc1ccccc1Cl)C1CCN(c2cnccn2)CC1 | inactive | 
Cc1onc(-c2ccccc2)c1C(=O)N1CCCN(C(=O)c2c(-c3ccccc3)noc2C)CC1 | inactive | 
COc1ccccc1-c1cc(C(=O)Nc2ccc(F)cc2F)no1 | inconclusive [inhibitor, partial curve] | 
CC(=O)Nc1ccc(NC(=O)c2ccccc2CC[N+](=O)[O-])cc1 | inconclusive [inhibitor, single point] | 
Cc1cc(C(C#N)c2ccccc2F)n2ncnc2n1 (stereo not given) | active: 15.8 µM | 
CC(C)(C)n1nc2c(c1NC(=O)c1cc3ccccc3o1)CS(=O)(=O)C2 | inactive | 
COCc1cc(C)n(CC(=O)N/N=C/c2ccc(-c3ccc(Cl)c(C(=O)O)c3)o2)c(=O)c1C#N | inconclusive [inhibitor, single point] | 
CCCCc1nc(NCCNC(=O)c2ccccc2)c(C#N)c2c1CSC(C)(C)C2 | inconclusive [inhibitor, single point] | 
CCC1CCCCN1C(=O)CSc1nnc(CNC(=O)COc2ccc(Cl)cc2)o1 (stereo not given) | active: 7.08 µM | 
C=CCSc1nc2ccccc2n1Cc1nnc(-c2cccs2)o1 | inconclusive [inhibitor, partial curve] | 
CCCCCCCCCCCCCCCCOCC(CO)OC(C)=O (stereo not given) | inactive | 
O=C(CSC1=Nc2ccccc2C2=NC(c3ccccc3)C(=O)N12)NC1CCCCC1 (stereo not given) | inconclusive [inhibitor, partial curve] | 
Cc1[nH]c(=O)c(C#N)c2c1CCCC2 | inconclusive [inhibitor, single point] | 
Cc1[nH]c(=O)c(C#N)c2c1COC(C)(C)C2 | inconclusive [inhibitor, single point] | 
COc1ccc(COC(=O)N/N=C2/C[C@@H](O)[C@@H](O)[C@@H]3[C@H]4C(=O)N(c5ccc(F)cc5F)C(=O)[C@@H]4CC[C@H]23)cc1 |  | inactive: -3.03% [at 13.5 µM]
O=c1[nH]c(-c2ccco2)nc2sc3c(c12)CCCC3 | inconclusive [inhibitor, partial curve] | 
CCN1C(=S)SC(=O)C1=C1C=C(C)N(CCOC)C(C)=C1 | active: 6.31 µM | 
COc1ccc(N(CC(=O)NC2CCCCC2)C(=O)CNC(=O)c2ccco2)cc1 | inconclusive [inhibitor, single point] | 
COc1ccc(-n2nnnc2SCC(=O)N2CCN(C(=O)c3ccco3)CC2)cc1OC | active: 31.6 µM | 
Cc1nc2ccc(NC(=O)c3ccco3)cc2nc1C | inconclusive [inhibitor, partial curve] | 

SMILES | Potency | activity, negative = inhibition
COc1cc2ccc(=O)oc2c(OC)c1OC | inconclusive [inhibitor, single point] | 
COC(=O)NNC(=S)NCc1ccccc1 | inconclusive [inhibitor, single point] | 
Cc1sc(NC(=O)c2ccccc2)c(C(=O)NC(C)C)c1C | inconclusive [inhibitor, single point] | 
O=C1NC2(CCCCC2)Oc2ccccc21 | active: 15.8 µM | 
Cc1ccc(N(C)S(=O)(=O)c2cccc(C(=O)Nc3nc4ccccc4[nH]3)c2)cc1 | inconclusive [inhibitor, single point] | 
O=C(/C=C\c1cn(-c2ccccc2)nc1-c1ccc2c(c1)OCCO2)N1CCOCC1 | inconclusive [inhibitor, single point] | 
CCN(CC)C(=O)CSc1nc(-c2ccccc2)cc(=O)[nH]1 | inconclusive [inhibitor, single point] | 
CCOc1ccc(OCC)c(NC(=O)C2CCN(S(=O)(=O)c3cnc[nH]3)CC2)c1 | inactive | 
CC(C)(C)C(=O)Nc1nc(=S)ss1 | active: 5.62 µM | 
O=C(Nc1ccc(Oc2cccc(C(F)(F)F)c2)nc1)c1ccccc1 | inactive | 
COC(=O)c1ccc(CNC(=O)c2cc3ccccc3oc2=O)cc1 | inactive | 
CCC(C)N(C)Cc1cccc(C2(O)CCN(S(=O)(=O)c3ccc(F)c(C)c3)CC2)c1 (stereo not given) | inconclusive [inhibitor, single point] | 
O=C(Cc1ccc(Br)cc1)N1CCN(c2ccccc2)CC1 | inconclusive [inhibitor, single point] | 
CC(=O)Nc1ccc(S(=O)(=O)Nc2nnc(C3CCCCC3)s2)cc1 | inconclusive [inhibitor, single point] | 
CCOC(=O)c1c(NC(=O)Cn2nc(C(F)(F)F)cc2C)sc2c1CCC2 | inconclusive [inhibitor, partial curve] | 
COc1ccc(S(=O)(=O)NCCSC(C)(C)C)cc1Cl | inconclusive [inhibitor, single point] | 
O=C(O)c1cccc(S(=O)(=O)N2Cc3ccccc3C2)c1 | inconclusive [inhibitor, single point] | 
CN(C(=O)CCl)C1CCCc2ccccc21 (stereo not given) | active: 0.398 µM | 
COc1ccc(C(=O)Nc2cc(Cl)ccc2C(=O)O)cc1 | inactive | 
CCc1ccc2nc3sc(C(=O)O)cc3cc2c1 | inactive | 
Clc1ccc(CCNc2nc3ccccc3s2)cc1 | inactive | 
CCOC(=O)Nc1ccc2c(c1)N(C(=O)CCN(C)C)c1ccccc1S2 | inactive | 
O=C(NCc1ccco1)c1nc2c(nnn2Cc2ccccc2Cl)c(=O)[nH]1 | inactive | 
CN1C(=O)C(Cl)(Cl)C(=O)c2ccccc21 | active: 0.398 µM | 
Cn1cc(-c2ccccc2)cc(C#N)c1=O | inconclusive [inhibitor, partial curve] | 

SMILES | Potency | activity, negative = inhibition
CC1(C)N([O-])C2=C(c3ccccc3C2=O)[N+](=O)C1(C)C | inactive | 
O=C(Nc1cccc2ccccc12)c1ccccc1NS(=O)(=O)c1cccc2cccnc12 | inactive | 
CC(=O)NC(C)C(=O)OCc1ccc(Cl)cc1Cl (stereo not given) | inactive | 
O=C(COC(=O)c1ccc([N+](=O)[O-])o1)c1ccccc1 | inconclusive [inhibitor, single point] | 
CCOC(=O)C1CCN(c2c(NCc3ccc(C(=O)NC(C)CC)cc3)c(=O)c2=O)CC1 (stereo not given) | inconclusive [inhibitor, single point] | 
O=C(CSc1ccccn1)Nc1nc2ccccc2s1 | inactive | 
CCOc1cc(OCC)cc(C(=O)NC(=S)Nc2cccc(C(F)(F)F)c2)c1 | active: 3.55 µM | 
O=C(/C=C/c1ccccc1F)c1cccc([N+](=O)[O-])c1 | inconclusive [inhibitor, partial curve] | 
COc1cc(NC(=O)COc2ccc(Cl)cc2)ccc1-c1cc2ccccc2oc1=O | inconclusive [inhibitor, partial curve] | 
Cc1ccc(C(=O)COC(=O)c2cc(Cl)nc3ccccc23)cc1 | inconclusive [inhibitor, single point] | 
CCC(=O)Nc1ccc2c(c1)nc1n2CCN(C2CCCCC2)C1 | inconclusive [inhibitor, partial curve] | 
COc1cc(-c2cccs2)cc(=O)c2c(C)oc(C)c12 | inconclusive [inhibitor, single point] | 
CCOc1ccc(-c2cc(C(=O)NN=C3CCN(C)CC3)[nH]n2)cc1 | inconclusive [inhibitor, single point] | 
CC(=O)N1CCCc2cc(S(=O)(=O)N3CCC(C)CC3)ccc21 | inactive | 
CCOc1ncccc1C(=O)NCc1ccc(C)cc1 | inactive | 
CCN(CC)c1ccc(CN2CCCCCC2)cc1 | inconclusive [inhibitor, partial curve] | 
COC(C)C(C(=O)OCC1=CCN2CC[C@H](O)[C@@H]12)C(C)C (stereo not given in full) | inactive | 
CN1CCN(c2ccc(NC(=O)c3cccs3)cc2)CC1 | inactive | 
COc1ccc(N/N=C(\C=N\O)C(=O)c2ccc(OC)cc2)cc1 | inconclusive [inhibitor, single point] | 
CN(C)c1ccc(-c2cc(NCc3cccnc3)ncn2)cc1 | inconclusive [inhibitor, partial curve] | 
COc1cccc2c(=O)cc(C)n(CC(=O)Nc3ccc(Br)cc3)c12 | inconclusive [inhibitor, single point] | 
Cc1cc(C(F)F)n2nc(C(=O)Nc3c(F)cc(F)cc3Br)nc2n1 | inconclusive [inhibitor, partial curve, poor fit] | 
Oc1ccc(/C=N/N2CCN(C3c4ccccc4-c4ccccc43)CC2)c(O)c1 | inconclusive [inhibitor, single point] | 
Cc1nc(SCC(=O)CC(=O)OC(C)C)c(C#N)c(C)c1C | inconclusive [inhibitor, single point] | 
CN(C)S(=O)(=O)c1ccc(N2CCCC2)c(C(=O)NCc2ccccc2)c1 | inconclusive [inhibitor, single point] | 
